Activation data for 80 molecules are collected here from PubChem BioAssay AID1346428 (National Center for Advancing Translational Sciences (NCATS), 2018).

Out of some 48,000 compounds screened, about 1,200 (2.5%) were called active. About 2% were inconclusive and are not listed.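 Rule for the calls: active = activation of at least 60% and not above a set upper limit (about 1 call in 100 departs from these limits); inconclusive = activation of 40% to 60%, or above that upper limit; inactive = activation under 40%.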 This is one part of the list.

UniProt O75388, sequence (O75388 whole entry, looked up): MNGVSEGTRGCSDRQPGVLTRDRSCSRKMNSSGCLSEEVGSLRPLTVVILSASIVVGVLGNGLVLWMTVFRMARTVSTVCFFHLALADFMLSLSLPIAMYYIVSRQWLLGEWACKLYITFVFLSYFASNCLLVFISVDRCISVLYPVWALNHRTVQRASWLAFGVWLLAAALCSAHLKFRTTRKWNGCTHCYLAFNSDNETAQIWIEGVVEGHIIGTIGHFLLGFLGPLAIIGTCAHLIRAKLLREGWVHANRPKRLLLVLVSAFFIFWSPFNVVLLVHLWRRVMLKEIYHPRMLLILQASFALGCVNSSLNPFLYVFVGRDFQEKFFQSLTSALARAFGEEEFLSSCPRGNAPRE

In this assay the target is Probable G-protein coupled receptor 32 (Homo sapiens) (UniProt O75388). Briefly: qHTS for Agonists of Human Resolvin D1 Receptor DRV1. Note: 0% is about no effect. The conditions noted are these: CHO-K1 GPR32 beta-arrestin PathHunter luminescence, 90 min; at 76.9 µM; active compounds read high; zero percent set by DMSO-only wells. The method, boiled down:
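PathHunter beta-arrestin recruitment in CHO-K1 cells stably expressing ProLink-tagged GPR32. Cells were exposed to compound for 90 min at 37 C, then chemiluminescence was read after 1 h detection at ambient temperature; DMSO served as basal control.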
Background: In qHTS, concentration-response curves come from the screen itself.
For `Cc1nc(-c2ccc(C)c(S(=O)(=O)N3CCC(C(=O)Nc4ccc(Cl)cc4)CC3)c2)no1`, the activation was inactive: -3.85%.

Take `CCC1CCCCN1CCCNC(=O)c1cc2c(=O)n(CC)c3ccccc3c2s1` (stereo not given): the activation is inactive: -2.46%. Next, `COc1ccc(NC(=O)C2CCCN(S(=O)(=O)c3cccs3)C2)cc1` (stereo not given): inactive: 7.84%. `CC1Cc2cc(S(=O)(=O)N(C)c3ccc(Br)cc3)ccc2N1C(=O)C1CC1` (stereo not given): the activation is inactive: -3.22%.

For `Fc1ccc(Cc2cn3cc(-c4ccc(Cl)cc4)nc3s2)cc1`, the activation was inactive: 36.1%. As for `N#C/C(=C/c1ccc(Cl)cc1Cl)c1nc2ccccc2c(=O)[nH]1`, the activation is inactive: 19.4%. Consider `COc1ccc(CNC(=O)C2CCN(S(=O)(=O)c3ccc(C)cc3)CC2)cc1`, for which the activation is inactive: 8.66%.

In the case of `CCN1CCN(C(c2ccccc2)c2c(O)cc(C)n(Cc3ccco3)c2=O)CC1` (stereo not given), the activation was inactive: -17.7%. Take `CCOc1ccc(CCNC(=O)c2cccc(-n3c(C)nc4cccnc43)c2)cc1`: the activation was inactive: 2.86%. With `COc1ccc(-c2nnc3c4ccccc4c(-c4ccccc4)nn23)cc1`, the activation is inactive: -9.64%. Turning to `COC(=O)c1c(N)n(-c2ccc(OC)c(Cl)c2)c2nc3ccccc3nc12`, the activation was inactive: 47.2%. As to `CCOC(=O)c1nnn(CC(=O)NC(=O)Nc2cccc(CC)c2)c1C(=O)OCC`, the activation was inactive: 34.6%.

Take `CCN(CC)C(=O)c1sc2c(c1C)c(=O)n(-c1ccc(Cl)c(Cl)c1)c(=O)n2CC(=O)Nc1cccc(OC)c1`: the activation was inactive: -12.4%.

On to `COc1ccc(Cn2ccc3nc(C)c(C(=O)Nc4ccc(OC(F)(F)F)cc4)cc3c2=O)cc1`, for which the activation is inactive: -22.5%. As to `CCOC(=O)c1c(Nc2cc(C)cc(C)c2)nnc(-c2ccccc2)c1-c1ccccc1`, the activation was inactive: 11%.

For `C[C@H](N)C(=O)N[C@@H](C)C(=O)NC1[C@H]2CN(c3nc4c(cc3F)c(=O)c(C(=O)O)cn4-c3ccc(F)cc3F)C[C@@H]12` (stereo not given in full), the activation was inactive: -1.22%. For `CCCCC(=O)OC1=C(C(=O)c2ccccc2)N(CC)S(=O)(=O)c2ccccc21` the value was inactive: -31.5%. Consider `CSc1ccc(CNC(=O)c2cc3cc(S(=O)(=O)N4CCCCC4)ccc3n2C)cc1`, for which the activation is inactive: -12%. Next, `CC1CCN(S(=O)(=O)c2ccc3nc(Nc4ccc(C#N)cc4)ccc3c2)CC1`: inactive: -15.2%; `COc1cccc(CNC(=O)C2CCN(S(=O)(=O)N3CCC(C)CC3)CC2)c1`: inactive: -5.69%; `Cc1cccc(OCCSc2nc(-c3cccs3)nc3cc(=O)[nH]n23)c1`: inactive: -26.9%. Consider `COc1ccccc1N1CCN(S(=O)(=O)c2c(C)nc3sc(C)c(C)n3c2=O)CC1`, for which the activation is inactive: -1.34%. For `COc1ccccc1CNS(=O)(=O)c1ccc(F)c(C(=O)Nc2cc(Cl)ccc2OC)c1` the value was inactive: -19.6%. As for `O=C(O)c1cc([N+](=O)[O-])ccc1NCCCc1ccccc1`, the activation was inactive: -8.45%. As to `O=C(NCC(c1cccnc1)N1CCc2ccccc2C1)C(=O)Nc1ccccc1` (stereo not given), the activation is inactive: -8.06%. In the case of `COc1cccc2c1Oc1ncccc1N(C(=O)Nc1cccc(Cl)c1)C2`, the activation is inactive: -23.9%. For `CC(=O)CC(c1ccc([N+](=O)[O-])cc1)c1c(O)c2ccccc2oc1=O` (stereo not given) the value was inactive: -47.1%. In the case of `CCCCCCCCNC(C)C(O)c1ccc(SC(C)C)cc1` (stereo not given), the activation was inactive: 42.9%. In the case of `CCCCC(=O)OC1=C(C(=O)c2ccccc2)N(C)S(=O)(=O)c2ccccc21`, the activation was inactive: -27.7%. With `COc1ccc(CNS(=O)(=O)c2cnc(N)nc2)cc1`, the activation is inactive: -6.96%.

For `Cc1cccc(CNC(=O)c2ccc3c(c2)N(C)C(=O)C2CCCCN32)c1` (stereo not given), the activation was inactive: 3.18%. On to `O=C(Nc1ccc(F)cc1F)c1cnn(-c2ccc(F)cc2)c1-n1cccc1`, for which the activation is inactive: -1.86%. Take `CCOc1ccccc1NC(=O)CN1c2ccccc2S(=O)(=O)c2ccccc21`: the activation was inactive: 4.15%. For `Cc1ccc(CNC(=O)c2cc(S(=O)(=O)N3CCCCCC3)cn2C)cc1` the value was inactive: -1.58%; for `Cn1cc(CCCC(=O)NCc2ccccc2Cl)c2ccccc21`, inactive: -23.2%. As to `CCOC(=O)c1c(NC(=O)CSc2nc(-c3ccccc3)cc(C(F)(F)F)n2)sc(C)c1C`, the activation is inactive: -2.26%. Next, `CC(=O)Nc1nnc(SCc2cc(=O)c3cccc(Cl)c3[nH]2)s1`: inactive: -6.46%; `CCOc1ccc(CCNC(=O)Cn2nnc(-c3ccc(C(F)(F)F)cc3)n2)cc1OCC`: inactive: 3.25%. Regarding `CC(=O)N1c2ccc(S(=O)(=O)N3CCCCCC3)cc2CC1C(=O)NCc1ccccc1F` (stereo not given), the activation was inactive: -1.25%. Next, `CCOc1ccc(OCC)c(Nc2cc(C)nc3nc(-c4ccco4)nn23)c1`: inactive: -17.5%; `CCC1(O)CC2CN(CCc3c([nH]c4ccccc34)[C@@](C(=O)OC)(c3cc4c(cc3OC)N(C=O)C3[C@]45CCN4CC=C[C@@](CC)([C@@H](OC(C)=O)[C@]3(O)C(=O)OC)[C@H]45)C2)C1` (stereo not given in full): inactive: -13%; `Cc1ccc(CNc2ccc(-c3nc(-c4ccccn4)no3)cc2[N+](=O)[O-])cc1`: inactive: -30.6%.

Turning to `O=C(c1ccc([N+](=O)[O-])cc1)N1CCN(c2ccc(Nc3ccccc3)nn2)CC1`, the activation is inactive: -9.7%.

In the case of `CCOc1ccc(CCNC(=O)CN2C(=O)c3cccnc3Oc3ccc(Cl)cc32)cc1`, the activation was inactive: -7.66%. As for `CCOC(=O)c1c(S(=O)(=O)N2CCC(C(=O)Nc3ccc(OCC)cc3)CC2)c(C)n(C)c1C`, the activation is inactive: 0.349%. As for `CCCCN(CCCC)CCNC(=O)c1cn(C)c2ccc(S(=O)(=O)N3CCCC3)cc2c1=O`, the activation is inactive: 1.13%. As for `CCc1ccc(C2c3c(-c4cc(C)ccc4O)n[nH]c3C(=O)N2Cc2cccnc2)cc1` (stereo not given), the activation was inactive: -17.4%. In the case of `Cc1ccc(OCc2nc(-c3ccc(C(=O)N4CCN(c5ccccc5)CC4)cc3)oc2C)cc1`, the activation is inactive: 4.7%. For `O=C(NCc1ccccc1Cl)c1ccc(Nc2nc3ccccc3n3nnnc23)cc1`, the activation was inactive: -7.84%. For `COc1ccc(OC)c(NC(=O)N2c3ccccc3Sc3ccccc32)c1` the value was inactive: -20.8%; for `Cc1c(NC(=O)Nc2ccc(F)c(Cl)c2)c(=O)n(-c2ccccc2)n1C`, inactive: -8.62%; for `Cc1nn(CCC(=O)N2CCN(c3ccccc3)CC2)c(C)c1S(=O)(=O)N1CCCC1`, inactive: -18.9%. Turning to `CCc1cnc2c(c1SCC(=O)N1CCC(C)CC1)c(=O)n(C)c(=O)n2C`, the activation was inactive: -12.3%. Consider `Cc1ccc(Cl)cc1N1CCN(C(=O)C2CCN(S(=O)(=O)c3ccc4c(c3)oc(=O)n4C)CC2)CC1`, for which the activation is inactive: -5.98%. As for `CC(=O)c1cccc(NC(=O)c2nc3ccccc3nc2N2CCCCC2)c1`, the activation is inactive: -28.4%. Consider `O=C(Nc1ccc(F)cc1Cl)C1Cc2ccccc2N1C(=O)c1ccccc1` (stereo not given), for which the activation is inactive: -11.8%. Next, `O=C(CCn1nc(-c2ccc(Cl)cc2)c2ccccc2c1=O)Nc1ccc(OC(F)(F)F)cc1`: inactive: -3.77%; `COc1ccc(OC)c(CNC(=O)C2CCN(c3ncnc4c3nc3n4CCCCC3)CC2)c1`: inactive: -12.6%; `O=C(Nc1cc(F)ccc1F)c1cc2nc(-c3ccco3)cc(C(F)(F)Cl)n2n1`: inactive: 15.2%.

On to `COC(=O)c1cc(S(=O)(=O)NCC2CCN(Cc3ccccc3F)CC2)c[nH]1`, for which the activation is inactive: 0.997%. Next, `Cc1cc(C)c2c(n1)nn1c(C)c(CCC(=O)NCc3ccc(Cl)cc3)c(C)nc21`: inactive: -14.1%; `CN1C(=O)C2(c3ccccc31)N(c1ccc(F)c(Cl)c1)C(=O)CS2(=O)=O` (stereo not given): inactive: -24.6%.

In the case of `Cc1ccc(C2=NN(CC(=O)NCCc3ccc(Cl)cc3)C(=O)CC2)cc1`, the activation was inactive: -27.6%. Take `CCC(=O)N1CCc2cc(S(=O)(=O)CCC(=O)N3CCN(c4ccc(C(C)=O)cc4)CC3)ccc21`: the activation was inactive: 20%. Consider `CCOc1ccc(-c2cn3c(n2)sc2cc(C(=O)NCCc4ccc(OC)c(OC)c4)ccc23)cc1`, for which the activation is inactive: -6.13%. On to `Cc1cccc(NC(=O)N2CCC(n3c(C)nc4cccnc43)CC2)c1`, for which the activation was inactive: 2.04%. Next, `COc1ccc(CCNC(=O)CCn2c(=O)c3cccn3c3cccnc32)c(OC)c1OC`: inactive: 6.07%. As for `CCOC(=O)N1CCC(NC(=O)c2ccc3c(c2)N(Cc2cc(C)ccc2C)C(=O)c2ccccc2S3=O)CC1` (stereo not given), the activation was inactive: -3.69%. With `CCC(C)(C)NC(=O)Cn1c(=O)ccc2cc(S(=O)(=O)N3CCC(C)CC3)ccc21`, the activation was inactive: -11%. As to `O=C(CSc1nccn1Cc1ccccc1)Nc1ccc2c(c1)OCO2`, the activation is inactive: -9.34%. As for `CCOc1cc(C(=O)NCCc2csc(-c3ccc(C)cc3)n2)cc(OCC)c1OCC`, the activation is inactive: -12.3%. For the molecule `CN(C(=O)c1cc2c(=O)n3ccccc3nc2n1C)c1ccccc1`, the activation was inactive: -15.6%. With `COc1cccc(CNC(=O)c2nn(C)c3c2CS(=O)(=O)c2ccccc2-3)c1`, the activation was inactive: -7.95%.

Consider `CCn1cc(C(=O)N2CCN(c3ccc(OC)cc3)CC2)c(=O)c2cc(S(=O)(=O)N(C)C3CCCCC3)ccc21`, for which the activation was inactive: -3.09%. On to `COc1ccc(NC(=O)CSC2=Nc3ccccc3C3=NC(CCC(=O)NCCc4ccccc4)C(=O)N23)c(OC)c1` (stereo not given), for which the activation is inactive: -35.5%. As for `O=C(NCc1ccco1)c1ccc2c(c1)N(Cc1ccccc1F)C(=O)c1ccccc1S2=O` (stereo not given), the activation was inactive: -10.3%. In the case of `CC(=O)O[C@H]1CC[C@@]2(C)C(=CC[C@@H]3[C@@H]2CC[C@]2(C)C(C(C)=O)=CC[C@@H]32)C1`, the activation is inactive: 1.73%. For `Cc1cccc(OC(=O)c2cc(-c3ccc(Cl)cc3)on2)c1C`, the activation was inactive: 9.33%. For `COc1cccc(NC(=O)C(CCSC)NC(=O)C2CCC(C)CC2)c1` (stereo not given) the value was inactive: -7.48%; for `CC(C)CN(CCCNC(=O)c1cn(C)c2ccc(S(=O)(=O)N(C)C3CCCCC3)cc2c1=O)CC(C)C`, inactive: -2.1%.
